± gives the standard deviation of the averaged measurements. Whole data set: some 33,000 sequences, median “E-score (dimensionless, -0.5 to 0.5)” near -0.046, cut for the highest 2% near 0.36. The list shows a part of the results.

The assay deals with T1, SpTbr T-box DNA-binding domain (GST fusion).
T1 sequence: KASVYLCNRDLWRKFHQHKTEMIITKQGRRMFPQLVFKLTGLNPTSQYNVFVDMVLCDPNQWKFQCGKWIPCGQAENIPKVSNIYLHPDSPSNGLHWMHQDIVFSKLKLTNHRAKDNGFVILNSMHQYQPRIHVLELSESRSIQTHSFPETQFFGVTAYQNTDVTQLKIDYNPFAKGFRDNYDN
Put plainly: PBM E-score of 8-mer (E-score (dimensionless, -0.5 to 0.5)); Tbr is Tbrain of the sea star Patiria miniata (Pm) or the sea urchin Strongylocentrotus purpuratus (Sp); higher = stronger binding preference; most listed sequences are background and not binding sites. The settings on record: the construct has about 5 more residues each side. The procedure, abridged:
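Using the Universal PBM Analysis Suite, every ungapped 8-mer received an enrichment E-score averaged over duplicate arrays. Probe intensities came from double-stranded Universal Agilent oligonucleotide arrays incubated with 200 nM GST-fused Tbr T-box DNA-binding domain in PBS (pH 7.5). That protein was expressed in BL21 E. coli at 20 °C and purified by glutathione affinity chromatography.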
On to CATGTAAC, for which the “PBM E-score of 8-mer” value is -0.0676 ± 0.027.
On to TAGAGTGA, for which the “PBM E-score of 8-mer” value came out at 0.162 ± 0.024.
As to AGACTAAT, the “PBM E-score of 8-mer” value was -0.2373 ± 0.00068.
With ACCAGATA, the “PBM E-score of 8-mer” value was -0.0597 ± 0.012.
The result for CACCAATA reads 0.197 ± 0.0024; that for CGCACGTC, 0.331 ± 0.013.
Regarding GAGCCGTA, the “PBM E-score of 8-mer” value was -0.122 ± 0.023.
In the case of GCAATTCA, the “PBM E-score of 8-mer” value was 0.089 ± 0.076.
The result for CAAAGGAA reads -0.118 ± 0.043.
In the case of CATTTGGG, the “PBM E-score of 8-mer” value is -0.261 ± 0.0028.
The result for AAGTCTAT reads -0.285 ± 0.042.
As for CGCTATTA, the figure is 0.155 ± 0.013.
As for AGGTATCG, the figure is 0.0459 ± 0.013.
Consider CTGGGGTC, for which the “PBM E-score of 8-mer” value is -0.162 ± 0.016.
AAGAGGTA: the “PBM E-score of 8-mer” value is -0.272 ± 0.035.
The result for GACATCTC reads -0.107 ± 0.0082; that for CGTTGTAG, -0.0713 ± 0.056.
As for AACGCTTA, the figure is 0.144 ± 0.038; as for TATGCGAA, 0.131 ± 0.068.
For the sequence CTTAGGCA, the “PBM E-score of 8-mer” value is -0.0896 ± 0.013.
The result for ACCGTCAC reads 0.272 ± 0.034.
Take CTTGGCTA: the “PBM E-score of 8-mer” value is -0.124 ± 0.031.
The result for CCACCCTC reads 0.0803 ± 0.068; that for CCCAGGAA, -0.193 ± 0.029.
For the sequence ATGCCGAA, the “PBM E-score of 8-mer” value was -0.2586 ± 0.0025.
As for GAAGACGA, the figure is -0.195 ± 0.06; as for ACGTTGCA, -0.0846 ± 0.046; as for ATTCGAAT, -0.199 ± 0.027.
The result for GACCCCGC reads -0.245 ± 0.053; that for ACTATTTG, -0.081 ± 0.045; that for AGTGGACG, -0.105 ± 0.019.
As to AACCTGTA, the “PBM E-score of 8-mer” value was -0.209 ± 0.018.
Take GTAACTAC: the “PBM E-score of 8-mer” value was -0.0297 ± 0.026.
As for AAATCTCT, the figure is 0.0717 ± 0.12; as for CGACAGAC, 0.171 ± 0.012; as for CGGAGGCA, -0.217 ± 0.0037.
In the case of CGAAGCCA, the “PBM E-score of 8-mer” value is -0.144 ± 0.14.
As for AGGTACAA, the figure is -0.136 ± 0.019.
With ATTCCGAC, the “PBM E-score of 8-mer” value was -0.0322 ± 0.021.
As for AACCACAA, the figure is 0.00265 ± 0.013; as for GCGCCTTA, 0.295 ± 0.0093.
The result for AGCAATTA reads -0.228 ± 0.029; that for AACTGAGG, 0.0486 ± 0.026; that for GGTGAACA, -0.0711 ± 0.04.
With AATGACTG, the “PBM E-score of 8-mer” value was -0.144 ± 0.088.
As for ACGTTCCA, the figure is -0.0981 ± 0.02; as for ACGCAATC, -0.0853 ± 0.12.
For CCTGGACG, the “PBM E-score of 8-mer” value was found to be 0.024 ± 0.021.
As for AACTAGGT, the figure is -0.0891 ± 0.0078.
The result for CTATCAGC reads 0.0496 ± 0.084; that for CCATTGAA, -0.132 ± 0.0095; that for GGATCGTA, -0.205 ± 0.042.
GTCGGCTA: the “PBM E-score of 8-mer” value was -0.102 ± 0.029.
As for CTAACCCC, the figure is -0.0153 ± 0.06.
With GAGGGATA, the “PBM E-score of 8-mer” value was -0.142 ± 0.083.
The result for ATTACGTG reads -0.0763 ± 0.018; that for CGCTTACG, 0.1618 ± 0.0016.
As for GGATCTAA, the figure is -0.135 ± 0.14.
In the case of ACACTCCA, the “PBM E-score of 8-mer” value was determined as 0.29 ± 0.007.
On to CCAAGCAG, for which the “PBM E-score of 8-mer” value is -0.24466 ± 0.00023.
Consider AGGCGTGG, for which the “PBM E-score of 8-mer” value was 0.321 ± 0.044.
As to AACCAGTC, the “PBM E-score of 8-mer” value was -0.176 ± 0.021.
As for AATCTGTG, the figure is 0.132 ± 0.022.
Regarding AACTAGCG, the “PBM E-score of 8-mer” value was -0.202 ± 0.03.
The result for CTCATGAC reads -0.0676 ± 0.011; that for AGACGGCG, -0.0973 ± 0.026.
As for AGTCTTTA, the figure is -0.184 ± 0.076.
The result for AGTATCAT reads -0.27 ± 0.032; that for CTCGCGAC, 0.311 ± 0.025.
For CCAAGACA, the “PBM E-score of 8-mer” value was -0.0435 ± 0.011.
As to TACGGGCA, the “PBM E-score of 8-mer” value was -0.0818 ± 0.02.
As for ATAGATAG, the figure is -0.136 ± 0.014; as for ACGCACAT, 0.152 ± 0.038.
As for ACACGTCA, the figure is 0.319 ± 0.017; as for ATTCCTCA, -0.0778 ± 0.036; as for CCGAAACA, -0.00465 ± 0.06.
As for CTTGACTA, the figure is 0.0379 ± 0.0078; as for AGCTGGAA, -0.143 ± 0.038; as for ACACATTA, 0.291 ± 0.031.
On to ACGCATAA, for which the “PBM E-score of 8-mer” value was -0.0185 ± 0.04.
As for AGCCCTGG, the figure is -0.298 ± 0.1; as for GGCCCTCA, -0.225 ± 0.035; as for GCCACTAC, 0.0706 ± 0.028.
As for GGCACGTA, the figure is -0.00172 ± 0.0099.
For AGTCGGAG, the “PBM E-score of 8-mer” value is -0.225 ± 0.015.
For the sequence GCAACGGC, the “PBM E-score of 8-mer” value was found to be 0.0811 ± 0.022.

For the origin of these results see the supplement of paper PMC4166925.
